From PubChem BioAssay AID588855 (National Center for Advancing Translational Sciences (NCATS), 2011)
Out of some 410,000 compounds screened, about 5,000 (1.2%) were called active. The shares of active, inactive and inconclusive entries below differ from those in the screen. The call rests on the fitted dose curve; in most records, active means well fitted inhibition curve with a large enough effect; inconclusive means small, poorly fitted or top-dose-only effect; inactive means no such curve, though single readings can be large or run the other way. Potencies beside an inconclusive call are fits to weak or partial responses and may not hold up.

test: qHTS for Inhibitors of TGF-b; settings: HepG2 CAGA-GFP TGF-b/SMAD3 reporter, GFP fluorescence, 18 h, TGF-beta stimulated, 500 pg/mL final; series mostly up to 46.1 µM; activity, negative = inhibition: at the top concentration; further: nearly all actives have a fitted effect of over 65% in size
Method in brief: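 GFP signal (ex488/em500-530) from TGF-beta-stimulated HEPG2 CAGA-GFP cells, 500 pg/mL final, 18 h at 37 degrees C in DMEM plus 1% FBS, normalized to unstimulated and DMSO-stimulated controls.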
On the % scale 0 is the no-effect control and ±100 the full control effect; potency means the concentration at half of the fitted maximal effect; tags describe the fitted curve by direction and shape.

Row | Compound | activity, negative = inhibition | Potency
1 | CC(C)(C)NC(=O)CCN(/N=C/c1ccccc1)C1=NS(=O)(=O)c2ccccc21 | inactive: 0% | –
2 | CCOC(=O)c1cc(OC)c2cccc(CN3CCCC(C)(C(=O)NCCOC)C3)c2c1 (configuration not stated) | inactive: -26.6% | –
3 | Cc1cc(Br)ccc1OCCn1ccnc1 | – | inconclusive: 5.01 µM [inhibitor, single point]
4 | CCOC(=O)C1=C(C)NC2=C(C(=O)CCC2)C1c1cn(Cc2ccc(Cl)cc2Cl)nc1-c1ccccc1 (configuration not stated) | – | inconclusive: 20 µM [inhibitor, partial curve, poor fit]
5 | CCc1n[nH]c(=S)n1/N=C/c1ccc(-c2ccc(Br)cc2)o1 | – | inconclusive: 11.2 µM [inhibitor, partial curve]
6 | Cc1ccc(C(=O)Nc2nc3ccccc3n3nnnc23)cc1 | inactive: 5.37% | –
7 | O=C(NCc1ccco1)C(c1ccco1)N(Cc1cccs1)C(=O)Cn1nnc2ccccc21 (configuration not stated) | – | inconclusive: 14.1 µM [inhibitor, single point]
8 | CCCn1c(C(C)Nc2nc(-c3ccc(Cl)c([N+](=O)[O-])c3)cs2)nc2cc(Cl)c(N3CCCCC3)cc21 (configuration not stated) | – | inconclusive: 3.98 µM [inhibitor, single point]
9 | Cc1cccc(C(=O)N2CCCC(CCC(=O)N3CCN(c4ccccn4)CC3)C2)c1 (configuration not stated) | inactive: 0% | –
10 | CCN1CCN(S(=O)(=O)c2ccc(Cl)c(C(=O)N(C)C(c3ccccc3)c3ccccc3)c2)CC1 | – | inconclusive: 11.2 µM [inhibitor, single point]
11 | Cn1cc(S(=O)(=O)c2ccccc2)c(=O)c2cc(F)c(N3CCN(c4ccccc4)CC3)cc21 | inactive: 13.5% | –
12 | COc1cc(CC(=O)Nc2ccc3nc(SC)sc3c2)cc(OC)c1OC | inactive: -16.1% | –
13 | COC(=O)c1cccc(N(CC(=O)NC2CCCC2)C(=O)CNC(=O)c2cccs2)c1 | inactive: -36.5% | –
14 | CC1C(=O)CC(c2ccc([N+](=O)[O-])cc2)NC1c1ccc([N+](=O)[O-])cc1 (configuration not stated) | inactive: 16.6% | –
15 | Cc1ccc(S(=O)(=O)N2CCN(C(=O)/C=C/c3ccccc3)CC2)cc1C | – | inconclusive: 6.31 µM [inhibitor, single point]
16 | Cc1ccccc1-c1cc(C(=O)Nc2nc3c(s2)CCCC3)c2ccccc2n1 | inactive: 5.53% | –
17 | COc1ccccc1C1CCN(C(=O)c2cccc([N+](=O)[O-])c2)CC1 | inactive: -19.4% | –
18 | CCOC(=O)c1csc(N/N=C2\CCCc3ccccc32)n1 | – | inconclusive: 35.5 µM [inhibitor, single point]
19 | Cc1cc2c(cc(C(=O)NCc3cccnc3)n2Cc2ccc(Cl)cc2)o1 | inactive: -16.6% | –
20 | CCOC(=O)c1ccc(S(=O)(=O)N2CCN(C(=O)c3cccc(S(=O)(=O)N4CC(C)OC(C)C4)c3)CC2)cc1 (configuration not stated) | inactive: -19.7% | –
21 | COc1ccc(-c2nc(N3CCN(S(=O)(=O)c4ccc(F)cc4)CC3)c3ccccc3n2)cc1 | inactive: 2.49% | –
22 | Cc1cccc(-n2c(SCC(=O)O)nc3sc4c(c3c2=O)CCCC4)c1 | – | inconclusive: 1.41 µM [inhibitor, partial curve, poor fit]
23 | OCCNc1nc(NCCC2=CCCCC2)nc(N2CCOCC2)n1 | inactive: -1.08% | –

Row | Compound | activity, negative = inhibition | Potency
24 | Cc1cccc(Cn2cc(C(=O)Nc3ccc(F)c(C(F)(F)F)c3)ccc2=O)c1 | – | inconclusive: 15.8 µM [inhibitor, single point]
25 | CCOc1cc(C(=O)CSc2nnc(CNc3ccc(Cl)cc3)o2)ccc1NC(=O)CC | – | inconclusive: 22.4 µM [inhibitor, single point]
26 | O=C(Nc1nnc(C2CC2)s1)c1cc(S(=O)(=O)N2CCN(c3ccccc3)CC2)ccc1Cl | – | inconclusive: 35.5 µM [inhibitor, single point]
27 | CCOC(=O)c1sc(=S)n(-c2ccc(F)c(F)c2)c1N | – | inconclusive: 7.08 µM [inhibitor, partial curve]
28 | CCn1c(SCC(=O)Nc2nc3ccccc3s2)nc2c(c1=O)SC(C)C2 (configuration not stated) | – | inconclusive: 10 µM [inhibitor, partial curve, poor fit]
29 | CCCCCC(/C=N/Nc1ccc(S(=O)(=O)N2CCOCC2)cc1[N+](=O)[O-])=C\c1ccccc1 | – | inconclusive: 35.5 µM [inhibitor, single point]
30 | O=C(CSc1nnc(COc2cccc3cccnc23)o1)N1CCc2ccccc21 | – | inconclusive: 2.82 µM [inhibitor, full curve]
31 | O[C@H]1C[C@H](c2ccccc2)N(Cc2cccs2)C[C@@H]1n1cc(-c2ccc(F)cc2)nn1 | – | inconclusive: 17.8 µM [inhibitor, single point]
32 | COCCCn1c(=O)/c(=C\c2ccccc2OC(C)C)s/c1=C(/C#N)C(=O)Nc1ccc(C(=O)O)cc1 | inactive: 10.4% | –
33 | Brc1cccc(OCCSc2ncccn2)c1 | – | inconclusive: 35.5 µM [inhibitor, single point]
34 | CC(=O)Nc1ccc(-c2csc(NCCc3ccccc3)n2)cc1 | – | inconclusive: 35.5 µM [inhibitor, single point]
35 | O=C(CN1CCCc2ccccc21)NC(=O)NC1CCCCC1 | – | inconclusive: 17.8 µM [inhibitor, single point]
36 | CCOc1ccc2nc(NC(=O)CSc3nnnn3C3CCCCC3)sc2c1 | – | inconclusive: 10 µM [inhibitor, partial curve]
37 | CC(C)(C)c1ccc(C(=O)Nc2cccc(C(=O)N3CCOCC3)c2)cc1 | inactive: -29.2% | –
38 | Cc1cccc(CN2CCC(C(=O)Nc3cccc(-c4cccc(F)c4)c3)CC2)n1 | – | inconclusive: 3.16 µM [inhibitor, full curve]
39 | CC(C)Nc1nc(NCCOc2ccccc2Cl)c2sccc2n1 | – | inconclusive: 14.1 µM [inhibitor, partial curve, poor fit]
40 | CCC(CC)c1nc(C(N)=O)c2[nH]c(=O)n(-c3ccc(OC)c(OC)c3)c2n1 | inactive: -0.535% | –
41 | COc1ccc(CNC(=O)/C(C#N)=C2\N=C(NC(=O)c3cccs3)c3ccccc32)cc1 | inactive: 6.8% | –
42 | C=CCOc1ccc(CN(C)CC(=O)Nc2ccc3c(c2)CCC3)cc1 | – | inconclusive: 25.1 µM [inhibitor, partial curve, poor fit]
43 | COc1ccc(C2Sc3ccccc3NC3=C2C(=O)c2ccccc23)c(OC)c1OC (configuration not stated) | – | inconclusive: 35.5 µM [inhibitor, single point]
44 | Cc1ccc2nc(-c3cc(NC(=O)c4ccc5c(c4)OCCO5)ccc3Cl)oc2c1 | inactive: -0.892% | –
45 | COc1ccc(NC(=O)Cn2c(=O)sc3ccccc32)c(OC)c1 | – | inconclusive: 3.16 µM [inhibitor, single point]
46 | CCN(CC)C(=O)[C@H]1CC(CC(=O)NCCN2CCOCC2)C(=O)N2CCc3c([nH]c4ccc(OC)cc34)[C@]12C (some centres not stated) | inactive: -3.21% | –

Row | Compound | activity, negative = inhibition | Potency
47 | COc1ccc(-c2onc(C)c2C)cc1S(=O)(=O)N1c2ccccc2CC1C (configuration not stated) | – | inconclusive: 0.316 µM [inhibitor, full curve, poor fit]
48 | CN(C(=S)NC(=O)c1ccc(Br)o1)c1ccccc1 | – | inconclusive: 35.5 µM [inhibitor, partial curve, poor fit]
49 | COc1ccc(C2/C=C\CN(C(=O)NC34CC5CC(CC(C5)C3)C4)CC(=O)N2Cc2ccc(F)cc2)cc1 (configuration not stated) | – | inconclusive: 35.5 µM [inhibitor, single point]
50 | COc1ccc(-c2nnc(C3CCN(C(=O)c4ccccc4F)CC3)o2)cc1 | – | inconclusive: 2.82 µM [inhibitor, full curve]
51 | CCOC(=O)C1=C[C@@H](C(C)C)N(S(=O)(=O)c2ccc(C)cc2)[C@H]1c1ccccc1F | – | inconclusive: 10 µM [inhibitor, partial curve, poor fit]
52 | COc1cccc(CC(=O)Nc2ncc(C)s2)c1 | inactive: -44.7% | –
53 | O=C1CCCC2=C1C(c1ccc(Cl)cc1)C1C(=O)c3ccccc3C1=N2 (configuration not stated) | – | inconclusive: 35.5 µM [inhibitor, single point]
54 | CC(=O)c1c(C)[nH]c(C(=O)OCC(=O)N2CCN(S(=O)(=O)c3ccc(C)cc3C)CC2)c1C | inactive: -3.69% | –
55 | CCN(C(=O)Cn1nc(Cc2cccnc2)c2ccccc2c1=O)c1ccccc1F | – | inconclusive: 3.98 µM [inhibitor, partial curve, poor fit]
56 | O=S(=O)(Nc1ccc2oc3c(c2c1)CCCC3)c1cc(Cl)ccc1Cl | – | inconclusive: 35.5 µM [inhibitor, single point]
57 | Cc1cc(N2CCN(Cc3nc(-c4ccc(Cl)cc4)oc3C)CC2)cc(C)n1 | – | inconclusive: 25.1 µM [inhibitor, single point]
58 | O=Cc1cn(CC(O)Cn2cc(C=O)c3ccccc32)c2ccccc12 | inactive: 11.1% | –
59 | C[C@H](NC(=O)c1[nH]cnc1C(=O)Nc1ccc(Cl)cc1)c1ccccc1 | – | inconclusive: 7.94 µM [inhibitor, partial curve, poor fit]
60 | Cc1noc(C)c1COc1ccccc1C(=O)N(C)Cc1ccc(F)cc1 | – | inconclusive: 6.31 µM [inhibitor, single point]
61 | CC(=O)Oc1ccccc1C(=O)C=Cc1cccc([N+](=O)[O-])c1 | – | active: 7.08 µM
62 | CCCCCCSc1cccc(-c2nc3ccc(C)cn3c2NC2CCCCC2)c1 | inactive: -2.76% | –
63 | Cc1nc(C(F)(F)F)ccc1C(=O)N1CCC1(C)C(=O)NS(=O)(=O)c1c(C)noc1C (configuration not stated) | – | inconclusive: 3.16 µM [inhibitor, single point]
64 | CCc1cccc(NC(=O)Cn2c(=O)n(Cc3ccccc3)c(=O)c3c2c2cc(OC)ccc2n3C)c1 | inactive: -0.0321% | –
65 | CC(C)(C)c1ccc(OCc2nc(-c3ccccn3)no2)c(Br)c1 | – | inconclusive: 35.5 µM [inhibitor, single point]
66 | COc1ccc(S(=O)(=O)N2CCCC2c2cccs2)cc1 (configuration not stated) | – | inconclusive: 1.58 µM [inhibitor, partial curve, poor fit]
67 | CCc1c(C(=O)NNC(=S)NCc2ccccc2)csc1C | – | inconclusive: 1.12 µM [inhibitor, full curve, poor fit]
